Assay results from patent US20250066451A1 (SWEDISH ORPHAN BIOVITRUM AB PUBL, published 2025).

T1: human IL-1R-I (human, UniProt P14778 18-332, limits assumed)
T1 construct: bought recombinant protein; also called hIL-1R-I; hIL-1RI
T1 sequence (looked up): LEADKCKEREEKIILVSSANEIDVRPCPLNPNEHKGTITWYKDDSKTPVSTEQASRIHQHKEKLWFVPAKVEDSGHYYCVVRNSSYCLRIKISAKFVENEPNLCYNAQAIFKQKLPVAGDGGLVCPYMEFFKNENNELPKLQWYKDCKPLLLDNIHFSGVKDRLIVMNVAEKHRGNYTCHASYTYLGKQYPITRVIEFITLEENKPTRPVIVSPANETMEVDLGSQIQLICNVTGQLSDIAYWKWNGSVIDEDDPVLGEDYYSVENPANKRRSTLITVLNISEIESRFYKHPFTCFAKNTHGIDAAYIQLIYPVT

B1: Z15876 (His6-Z) (designed binder)
chain: MGSSHHHHHHLQVDAKYAKEIEAAQMEIFGLPNLTRKQYTAFIRKLFDDPSQSSELLSEAKKLNDSQAPKVD
B2: Z15932 (His6-Z) (designed binder)
chain: MGSSHHHHHHLQVDAKYAKEVEEAQMEIFILPNLTRKQYTAFIRKLLDDPSQSSELLSEAKKLNDSQAPKVD
B3: Z18762 (His6-Z) (designed binder)
chain: MGSSHHHHHHLQVDAKYAKELEAIQMEIFRLPNLTRRQYTAFIRKLLDDPSQSSELLSEAKKLNDSQAPKVD
B4: Z18769 (His6-Z) (designed binder)
chain: MGSSHHHHHHLQVDAKYAKEVEEVQMEIFHLPNLTRRQYTAFIRKLLDDPSQSSELLSEAKKLNDSQAPKVD
B5: Z18770 (His6-Z) (designed binder)
chain: MGSSHHHHHHLQVDAKYAKETERVQMEIFSLPNLTRRQYTAFIRKLLDDPSQSSELLSEAKKLNDSQAPKVD
B6: Z18799 (His6-Z) (designed binder)
chain: MGSSHHHHHHLQVDAKYAKEVEAIQMEIFHLPNLTRKQYTAFIRKLFDDPSQSSELLSEAKKLNDSQAPKVD
B7: Z19151 (Z-ABD) (designed binder)
chain: AQHDEALEVDAKYAKEVEDIQLEIFALPNLTRRQYTAFIRKLLDDPSQSSELLSEAKKLNDSQAPKVDYVLAEAKVLANRELDKYGVSDYYKNLINNAKTVEGVKALIDEILAALPYVPG
B8: Z19153 (Z-ABD) (designed binder)
chain: AQHDEALEVDAKYAKEIEEIQMEIFDLPNLTRRQYTAFIRKLLDDPSQSSELLSEAKKLNDSQAPKVDYVLAEAKVLANRELDKYGVSDYYKNLINNAKTVEGVKALIDEILAALPYVPG
B9: Z19158 (Z-ABD) (designed binder)
chain: AQHDEALEVDAKYAKETEEIQMEIFALPNLTRRQYTAFIRKLLDDPSQSSELLSEAKKLNDSQAPKVDYVLAEAKVLANRELDKYGVSDYYKNLINNAKTVEGVKALIDEILAALPYVPG
B10: Z19159 (Z-ABD) (designed binder)
chain: AQHDEALEVDAKYAKETEEVQMEIFALPNLTRRQYTAFIRKLLDDPSQSSELLSEAKKLNDSQAPKVDYVLAEAKVLANRELDKYGVSDYYKNLINNAKTVEGVKALIDEILAALPYVPG
B11: Z19160 (Z-ABD) (designed binder)
chain: AQHDEALEVDAKYAKEIEIIQMEIFYLPNLTRKQYTAFIRKLLDDPSQSSELLSEAKKLNDSQAPKVDYVLAEAKVLANRELDKYGVSDYYKNLINNAKTVEGVKALIDEILAALPYVPG
B12: Z19166 (Z-ABD) (designed binder)
chain: AQHDEALEVDAKYAKELEEVQMEIYFLPNLTRRQYTAFIRKLLDDPSQSSELLSEAKKLNDSQAPKVDYVLAEAKVLANRELDKYGVSDYYKNLINNAKTVEGVKALIDEILAALPYVPG
B13: Z19168 (Z-ABD) (designed binder)
chain: AQHDEALEVDAKYAKEIERIQMEIFYLPNLTRRQYTAFIRKLFDDPSQSSELLSEAKKLNDSQAPKVDYVLAEAKVLANRELDKYGVSDYYKNLINNAKTVEGVKALIDEILAALPYVPG
B14: Z19169 (Z-ABD) (designed binder)
chain: AQHDEALEVDAKYAKEVEVIQMEIFGLPNLTRRQYTAFIRKLLDDPSQSSELLSEAKKLNDSQAPKVDYVLAEAKVLANRELDKYGVSDYYKNLINNAKTVEGVKALIDEILAALPYVPG
B15: Z19170 (Z-ABD) (designed binder)
chain: AQHDEALEVDAKYAKEVEEIQMEIFELPNLTRRQYTAFIRKLLDDPSQSSELLSEAKKLNDSQAPKVDYVLAEAKVLANRELDKYGVSDYYKNLINNAKTVEGVKALIDEILAALPYVPG
B16: Z19171 (Z-ABD) (designed binder)
chain: AQHDEALEVDAKYAKEIEDIQLEIFGLPNLTRKQYTAFIRKLLDDPSQSSELLSEAKKLNDSQAPKVDYVLAEAKVLANRELDKYGVSDYYKNLINNAKTVEGVKALIDEILAALPYVPG
B17: Z19172 (Z-ABD) (designed binder)
chain: AQHDEALEVDAKYAKELEDVQLEIFSLPNLTRRQYTAFIRKLLDDPSQSSELLSEAKKLNDSQAPKVDYVLAEAKVLANRELDKYGVSDYYKNLINNAKTVEGVKALIDEILAALPYVPG
B18: Z19180 (Z-ABD) (designed binder)
chain: AQHDEALEVDAKYAKEVEIIQMEIFHLPNLTRRQYTAFIRKLLDDPSQSSELLSEAKKLNDSQAPKVDYVLAEAKVLANRELDKYGVSDYYKNLINNAKTVEGVKALIDEILAALPYVPG
B19: Z19181 (Z-ABD) (designed binder)
chain: AQHDEALEVDAKYAKEVEEVQLEIYSLPNLTRRQYTAFIRKLLDDPSQSSELLSEAKKLNDSQAPKVDYVLAEAKVLANRELDKYGVSDYYKNLINNAKTVEGVKALIDEILAALPYVPG
B20: Z19182 (Z-ABD) (designed binder)
chain: AQHDEALEVDAKYAKEVEAIQMEIFQLPNLTRRQYTAFIRKLLDDPSQSSELLSEAKKLNDSQAPKVDYVLAEAKVLANRELDKYGVSDYYKNLINNAKTVEGVKALIDEILAALPYVPG
B21: Z19183 (Z-ABD) (designed binder)
chain: AQHDEALEVDAKYAKEIEDAQMEIYDLPNLTRRQYTAFIRKLLDDPSQSSELLSEAKKLNDSQAPKVDYVLAEAKVLANRELDKYGVSDYYKNLINNAKTVEGVKALIDEILAALPYVPG
B22: Z19302 (Z-ABD) (designed binder)
chain: AQHDEALEVDAKYAKEIEAVQMEIFHLPNLTRKQYTAFIRKLLDDPSQSSELLSEAKKLNDSQAPKVDYVLAEAKVLANRELDKYGVSDYYKNLINNAKTVEGVKALIDEILAALPYVPG
B23: Z19303 (Z-ABD) (designed binder)
chain: AQHDEALEVDAKYAKETEAVQMEIFTLPNLTRRQYTAFIRKLLDDPSQSSELLSEAKKLNDSQAPKVDYVLAEAKVLANRELDKYGVSDYYKNLINNAKTVEGVKALIDEILAALPYVPG
B24: Z19304 (Z-ABD) (designed binder)
chain: AQHDEALEVDAKYAKETEQVQMEIFHLPNLTRKQYTAFIRKLLDDPSQSSELLSEAKKLNDSQAPKVDYVLAEAKVLANRELDKYGVSDYYKNLINNAKTVEGVKALIDEILAALPYVPG
B25: Z19305 (Z-ABD) (designed binder)
chain: AQHDEALEVDAKYAKETEAVQMEIFRLPNLTRRQYTAFIRKLLDDPSQSSELLSEAKKLNDSQAPKVDYVLAEAKVLANRELDKYGVSDYYKNLINNAKTVEGVKALIDEILAALPYVPG

Key:
human IL-1R-I [1] = biological target: T1, human IL-1R-I; test: SPR; hIL-1R-I immobilized, His6-Z injected
human IL-1R-I [2] = biological target: T1, human IL-1R-I; test: SPR screening; Z-ABD captured on anti-ABD, 100 nM hIL-1R-I injected

Binder | Kd (human IL-1R-I [1]) [nM] | koff (human IL-1R-I [1]) [s⁻¹] | kon (human IL-1R-I [1]) [M⁻¹ s⁻¹] | Kd (human IL-1R-I [2]) [nM]
B1 | 0.8 | 0.0041 | 5.2e+06 | –
B2 | 0.64 | 0.011 | 1.8e+07 | –
B3 | 0.13 | 0.0052 | 4.2e+07 | –
B4 | 0.16 | 0.0031 | 1.9e+07 | –
B5 | 0.17 | 0.005 | 3e+07 | –
B6 | 0.18 | 0.0045 | 2.6e+07 | –
B7 | – | – | – | 2.7
B8 | – | – | – | 3.1
B9 | – | – | – | 1.5
B10 | – | – | – | 1.9
B11 | – | – | – | 3.8
B12 | – | – | – | 3.5
B13 | – | – | – | 4.6
B14 | – | – | – | 2.7
B15 | – | – | – | 2
B16 | – | – | – | 3
B17 | – | – | – | 4.5
B18 | – | – | – | 0.79
B19 | – | – | – | 9.7
B20 | – | – | – | 2.8
B21 | – | – | – | 12
B22 | – | – | – | 3.2
B23 | – | – | – | 4
B24 | – | – | – | 4.5
B25 | – | – | – | 3.8
